The values that follow come from paper PMC4336329 (PLoS ONE, 2015).

Molecules are shown by their SMILES. Out of some 310,000 compounds screened, about 2,200 (0.71%) showed an effect of 50% or more. Effects have a minus sign here. Some of the results follow.

The target of this experiment is human ether-à-go-go-related gene (hERG) potassium channel (human, UniProt Q12809). The experiment in a line: primary screen, population patch clamp on CHO cells stably expressing hERG.
Chain of human ether-à-go-go-related gene (hERG) potassium channel (Q12809 whole entry, looked up): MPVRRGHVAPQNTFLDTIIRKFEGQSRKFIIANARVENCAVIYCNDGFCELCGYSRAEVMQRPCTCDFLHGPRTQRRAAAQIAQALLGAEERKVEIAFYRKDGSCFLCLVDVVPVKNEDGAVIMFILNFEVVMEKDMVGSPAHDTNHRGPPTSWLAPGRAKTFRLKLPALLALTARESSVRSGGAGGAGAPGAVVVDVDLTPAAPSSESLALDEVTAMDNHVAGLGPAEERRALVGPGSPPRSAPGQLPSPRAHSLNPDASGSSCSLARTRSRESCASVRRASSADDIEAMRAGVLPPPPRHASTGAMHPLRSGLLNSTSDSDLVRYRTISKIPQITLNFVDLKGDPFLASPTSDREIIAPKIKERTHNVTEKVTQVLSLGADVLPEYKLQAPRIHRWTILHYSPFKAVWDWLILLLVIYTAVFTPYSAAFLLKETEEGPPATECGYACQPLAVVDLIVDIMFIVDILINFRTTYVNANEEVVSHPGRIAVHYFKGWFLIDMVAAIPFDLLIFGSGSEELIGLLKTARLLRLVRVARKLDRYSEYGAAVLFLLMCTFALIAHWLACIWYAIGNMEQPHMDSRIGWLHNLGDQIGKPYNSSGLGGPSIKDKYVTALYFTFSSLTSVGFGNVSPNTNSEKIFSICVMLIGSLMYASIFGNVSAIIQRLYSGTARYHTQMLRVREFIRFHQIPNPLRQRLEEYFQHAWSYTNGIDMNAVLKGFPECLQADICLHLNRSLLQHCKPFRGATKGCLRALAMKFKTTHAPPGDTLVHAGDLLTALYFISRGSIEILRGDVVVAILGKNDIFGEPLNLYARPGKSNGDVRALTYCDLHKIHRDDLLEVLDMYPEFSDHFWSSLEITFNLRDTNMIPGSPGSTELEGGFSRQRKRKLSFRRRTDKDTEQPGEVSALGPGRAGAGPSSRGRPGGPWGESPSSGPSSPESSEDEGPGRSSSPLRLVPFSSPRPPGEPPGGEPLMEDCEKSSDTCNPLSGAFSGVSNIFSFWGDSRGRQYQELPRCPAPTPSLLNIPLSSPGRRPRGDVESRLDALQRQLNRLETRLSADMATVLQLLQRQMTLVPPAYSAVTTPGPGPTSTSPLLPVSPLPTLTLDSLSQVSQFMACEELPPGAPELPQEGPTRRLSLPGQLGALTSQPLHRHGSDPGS
In the case of `CCc1ccccc1NC(=O)CN1CCN(C(=O)CNC(=O)c2ccc(-c3ccccc3)cc2)CC1`, the “hERG current change (%, negative = inhibition) at 1uM” value is -7.14%.

As to `O=c1[nH]c2ccccc2nc1-c1c[nH]c2ccccc12`, the “hERG current change (%, negative = inhibition) at 1uM” value came to 17.9%.

As for `CCOCCCNC(=O)CN1CCN(c2ccc(F)cc2)CC1.O=C(O)C(=O)O`, the “hERG current change (%, negative = inhibition) at 1uM” value is reported as -5.91%.

Turning to `O=C(Cc1ccccc1)NC(Cc1ccc(Cl)cc1)C(=O)O` (stereo not drawn), the “hERG current change (%, negative = inhibition) at 1uM” value is on record as 3%.

As for `c1cnc2c(c1)ccc1cccnc12`, the “hERG current change (%, negative = inhibition) at 1uM” value was 15.4%.

On to `CCOc1ccc(S(=O)(=O)N2CCC(C(=O)N3CCN(Cc4ccccc4)CC3)CC2)cc1`, for which the “hERG current change (%, negative = inhibition) at 1uM” value amounted to 6.19%.

Take `COc1cc(Cl)c(C)cc1NC(=O)CNC(C)c1ccccc1OC` (stereo not drawn): the “hERG current change (%, negative = inhibition) at 1uM” value is recorded as 7.79%.

For the compound `C/C(=N/OCO/N=C(\C)c1ccc(F)cc1F)c1ccc(F)cc1F`, the “hERG current change (%, negative = inhibition) at 1uM” value was 21.9%.

For the compound `CCOc1cc(C2CC(=O)Nc3cc(C)c(C)cc32)ccc1O` (stereo not drawn), the “hERG current change (%, negative = inhibition) at 1uM” value amounted to 3.52%.

Regarding `COC(=O)Cn1c(=NC(=O)c2ccc(OC)cc2)sc2cc(OC)ccc21`, the “hERG current change (%, negative = inhibition) at 1uM” value was determined as 7.44%.

On to `Cc1nn(CCCNC(=O)C2CCCO2)cc1Br` (stereo not drawn), for which the “hERG current change (%, negative = inhibition) at 1uM” value was determined as 14.2%.

`CC(=O)OCC(=O)Nc1ccc(Cl)cc1Cl`: the “hERG current change (%, negative = inhibition) at 1uM” value is 9.04%.

For `CCN=C1SC(CC(=O)Nc2ccc(C(F)(F)F)cc2)C(=O)N1CC` (stereo not drawn), the “hERG current change (%, negative = inhibition) at 1uM” value is 1.51%.

Turning to `CCN1CCN(C(=O)C(=O)c2cn(CC(=O)N3CCCC3)c3ccccc23)CC1`, the “hERG current change (%, negative = inhibition) at 1uM” value was 15.5%.

Consider `O=C(CCC(=O)OCC(=O)c1ccc(Cl)cc1)NC1CCCCC1`, for which the “hERG current change (%, negative = inhibition) at 1uM” value is reported as 13.6%.

In the case of `O=c1[nH]c(=O)n(-c2ccc(F)cc2)c(O)c1C=NCCN1CCCCC1`, the “hERG current change (%, negative = inhibition) at 1uM” value is listed as -12.8%.

Consider `O=C(NCCn1ccc2ccccc21)c1ccc2c(c1)OCO2`, for which the “hERG current change (%, negative = inhibition) at 1uM” value is 7.73%.

On to `COc1cccc(C(=O)NC2CCN(CC(=O)Nc3cccc(C)c3C)CC2)c1`, for which the “hERG current change (%, negative = inhibition) at 1uM” value is listed as 17.6%.

Turning to `CCOC(=O)N1CCC(NC(=O)c2cc3c(-c4ccccc4F)nn(C)c3s2)CC1`, the “hERG current change (%, negative = inhibition) at 1uM” value stood at 10.9%.

For the compound `CC(=O)N1CCC2(CC1)CC(=O)c1cc(Cl)ccc1O2`, the “hERG current change (%, negative = inhibition) at 1uM” value was -7.88%.

For `COc1cccc(C(C)NC(=O)Nc2cccc(C(F)(F)F)c2)c1` (stereo not drawn), the “hERG current change (%, negative = inhibition) at 1uM” value is given as -0.328%.

Regarding `COc1ccc(NC(=O)CN2C(=O)COc3ccc(S(=O)(=O)N4CCCCC4)cc32)c(OC)c1`, the “hERG current change (%, negative = inhibition) at 1uM” value is given as 11.1%.

Turning to `Cc1cc(C)n2nc(C(=O)NCc3cccc(C(F)(F)F)c3)nc2n1`, the “hERG current change (%, negative = inhibition) at 1uM” value stood at 4.77%.

For the compound `COc1cc(OC)c2ccc(=O)oc2c1C(CCN1CCN(c2ccccc2)CC1)c1ccc(N(C)C)cc1` (stereo not drawn), the “hERG current change (%, negative = inhibition) at 1uM” value is -2.7%.
